Source: the supplement of paper PMC11383711
The other results are listed elsewhere or left out. Binding of human antibodies (heavy:light variable regions, tested as scFv in one mRNA-display pool) to influenza hemagglutinin, with or without the stem antibody CR9114 bound first. Score = (mean enrichment − median) / interquartile range of that screen; higher = more enriched, 0 = typical non-binder. Active = above the paper's cut-off per screen: stems 28; unblocked H1 Solomon Islands 5, H1 Michigan 3, H3 5, H5 19, H7 2.85, both B 5; blocked 9, 7, H5 10, H7 10, B Phuket 10, B Lee 11.5. Scores are scaled within each screen and are no affinities; replicates correlate at about 0.6 to 0.9, and antibodies rare in the pool are noisier.

B1: antibody 5D03 (protein)
chain 1: VQLVQSGAEMKKPGESLQISCEGSGYNFNGYWIGWLRQMPGKGLEWMGIIHPSDSDTRYSPSLQGQVTISVDKSISTAYLLWNSLKTSDTAIYYCARRGGANYGLDYWGQGTLVTVSS
chain 2: DIQMTQSPSSLSASVGDRVTITCRARQTINRYLNWYQQKPGKAPKLLIYAATNLQSGVPSRFSGTGSGTLFTLTISSLQPEDLATYFCQQTYSTLGTFGPGTKVDIK
B2: antibody 4D06 (protein)
chain 1: VQLVESGGGVVQPGTSLRLSCVASEFTFSSSGMHWVRQAPGKGLEWVAIISYDGRKKYYVDSVEGRFTISRDNSKNTLYLQMNSLRVEDTAIYYCAKASTVTKRYNWFDPWGQGTLVTVSS
chain 2: DIQMTQSPSSLSASVGDRVTITCRASESISSYLNWYQQRPGKAPKLLIYAASSLQTGVPSRFSGSGSGTDYTLTISSLQPEDFATYFCQQSYSTPLTFGPGTKVDIK
B3: antibody 3E06 (protein)
chain 1: VQLQESGPGLVKPSETLSLNCTVSGGSIITSSLYWGWIRQPPGKGLEWIGCIYVDGSTYYNPSLTSRVTISVDTSKNQFSLSLTSVTAQDTAVYYCARPTGEGGGAFDIWGQGTMVTVSS
chain 2: DIQMTQSPSTLSASVGDRVTITCRASQSISIWLAWFQQKPGKAPKLLIYKASTLETGVPSRFSGSGSGTEFTLTISSLQPDDFATYYCQQYNIYWTFGQGTKVEIK
B4: W85-2F03 (protein)
chain 1: EVQLVESGGGLVQPGRSLRLSCTTSEFTFDEYTMSWVRQAPGKGLEWVGFIGSKAYRGTTEYAASVKGRFTISRDDFRSIAYLQMNSLKTEDTAVYYCTRDSGFGDYFDYWGQGTLVTVSS
chain 2: QSALTQPASVSGSPGQSITISCTGTSGDIGGYNYVSWYQQHPGKAPKLMIYDVSNRPSGVSNRFSASQSGKTASLTISGLQAEDEADYYCFSFTSTSTWVFGGGTKLTVL
B5: antibody 1G03 (protein)
chain 1: EVQLVETGGGLIQPGGSLRLSCAASGFIVSSNYMSWVRQAPGKGLEWVSVIYGGSSTYYADSVKGRFIISRDNSKSTLYLQMNSLRAEDTAVYYCARGPADIVAAGTYPYYYYAMDVWGQGTTVTVSS
chain 2: DIQMTQSPDSLAVSLGERATINCKSSQSVLYSSNNKNYLAWYQQKPGQPPKLLIYWASTRESGVPDRFSGSGSGTNFTLTIRSLQAEDVAVYYCQQYYITPYTFGQGTKVEIK
B6: C1-B01 (protein)
chain 1: VQLVESGGGLVQPGGSLRLSCAASGFPFATYSMNWVRQAPGKGLEWLSYISSSSATVFYADSVKGRLTISRDNAKNSLYLQMYSLRAEDTAVYYCAREEVVVAGTPFDSWGQGALVTVSS
chain 2: EIVMTQSPATLSVSPGERATLSCRASQSVGSRLAWYQQKPGQPPRLLLYDASTRATDIPARFSGTGYGTEFTLTISSIQSEDFAVYHCHQYSGWPPWTFGQGTKVEIK

What follows are binders tested against Influenza A H1N1 A/Michigan/45/2015 hemagglutinin ectodomain (assay: mRNA display binding score; higher = more enriched on the antigen). Conditions: antigen blocked with: 2 µM CR9114 IgG.
Protocol: (§1)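 A pool of natively paired antibodies, displayed as scFv on mRNA, was selected once on antigen-coated beads and sequenced before and after; two replicates.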
For B1, the “mRNA display binding score” value was inactive: -0.401.
In the case of B2, the “mRNA display binding score” value is reported as inactive: 0.416.
With B3 the “mRNA display binding score” value was inactive: 0.288.
B4 was tested, and the “mRNA display binding score” value was inactive: -0.199.
B5 was tested, and the “mRNA display binding score” value was inactive: -0.252.
In the case of B6, the “mRNA display binding score” value is reported as inactive: -0.552.

Same assay, conditions: antigen blocked with: nothing
With B1 the “mRNA display binding score” value was inactive: -0.138.
With B2 the “mRNA display binding score” value was active: 3.11.
B3 was tested, and the “mRNA display binding score” value was inactive: 1.
In the case of B4, the “mRNA display binding score” value is reported as inactive: -0.473.
With B5 the “mRNA display binding score” value was inactive: -0.508.
B6 was tested, and the “mRNA display binding score” value was inactive: 0.803.

These binders were tested against Influenza A H1N1 A/Solomon Islands/3/2006 hemagglutinin ectodomain in the same assay as above. Conditions: antigen blocked with: 2 µM CR9114 IgG.
Protocol: as §1
B1 was tested, and the “mRNA display binding score” value was inactive: 0.226.
With B2 the “mRNA display binding score” value was inactive: -0.078.
With B3 the “mRNA display binding score” value was inactive: 0.0349.
For B4, the “mRNA display binding score” value was inactive: 0.357.
With B5 the “mRNA display binding score” value was inactive: -0.878.
For B6, the “mRNA display binding score” value was inactive: -0.662.

Same assay, conditions: antigen blocked with: nothing
With B1 the “mRNA display binding score” value was inactive: -0.236.
In the case of B2, the “mRNA display binding score” value is reported as active: 6.75.
With B3 the “mRNA display binding score” value was inactive: 0.748.
B4 was tested, and the “mRNA display binding score” value was inactive: -0.305.
For B5, the “mRNA display binding score” value was inactive: 0.212.
In the case of B6, the “mRNA display binding score” value is reported as inactive: 0.817.

These binders were tested against Influenza A H3N2 A/Singapore/INFIMH-16-0019/2016 hemagglutinin ectodomain in the same assay as above. Conditions: antigen blocked with: nothing.
Protocol: as §1
B1 was tested, and the “mRNA display binding score” value was inactive: 2.72.
B2 was tested, and the “mRNA display binding score” value was inactive: 0.765.
In the case of B3, the “mRNA display binding score” value is reported as inactive: 1.15.
B4 was tested, and the “mRNA display binding score” value was inactive: 0.243.
For B5, the “mRNA display binding score” value was inactive: 2.43.
For B6, the “mRNA display binding score” value was inactive: -0.444.

What follows are binders tested against Influenza A H5N1 A/Qinghai/1A/2005 hemagglutinin ectodomain in the same assay as above. Conditions: antigen blocked with: 2 µM CR9114 IgG.
Protocol: as §1
For B1, the “mRNA display binding score” value was inactive: -0.455.
For B2, the “mRNA display binding score” value was inactive: 0.617.
In the case of B3, the “mRNA display binding score” value is reported as inactive: 0.598.
With B4 the “mRNA display binding score” value was inactive: -0.386.
In the case of B5, the “mRNA display binding score” value is reported as inactive: -0.453.
For B6, the “mRNA display binding score” value was inactive: -0.782.

Same assay, conditions: antigen blocked with: nothing
In the case of B1, the “mRNA display binding score” value is reported as inactive: -0.345.
In the case of B2, the “mRNA display binding score” value is reported as inactive: 1.76.
With B3 the “mRNA display binding score” value was inactive: 0.331.
For B4, the “mRNA display binding score” value was inactive: -0.0911.
B5 was tested, and the “mRNA display binding score” value was inactive: -0.212.
B6 was tested, and the “mRNA display binding score” value was inactive: 0.293.

The binders below were run against Influenza A H7N9 A/Shanghai/2/2013 hemagglutinin ectodomain in the same assay as above. Conditions: antigen blocked with: 2 µM CR9114 IgG.
Protocol: as §1
With B1 the “mRNA display binding score” value was inactive: -0.774.
In the case of B2, the “mRNA display binding score” value is reported as inactive: 1.55.
For B3, the “mRNA display binding score” value was inactive: 0.0849.
B4 was tested, and the “mRNA display binding score” value was inactive: 0.486.
With B5 the “mRNA display binding score” value was inactive: -0.23.
In the case of B6, the “mRNA display binding score” value is reported as inactive: -0.216.

Same assay, conditions: antigen blocked with: nothing
For B1, the “mRNA display binding score” value was inactive: 0.254.
B2 was tested, and the “mRNA display binding score” value was inactive: 0.67.
For B3, the “mRNA display binding score” value was inactive: 1.09.
With B4 the “mRNA display binding score” value was inactive: -0.154.
With B5 the “mRNA display binding score” value was inactive: -0.207.
For B6, the “mRNA display binding score” value was inactive: 0.0972.

The binders below were run against Influenza B/Lee/1940 hemagglutinin ectodomain in the same assay as above. Conditions: antigen blocked with: 2 µM CR9114 IgG.
Protocol: as §1
B1 was tested, and the “mRNA display binding score” value was inactive: -0.464.
With B2 the “mRNA display binding score” value was inactive: 0.914.
For B3, the “mRNA display binding score” value was inactive: -0.279.
With B4 the “mRNA display binding score” value was inactive: 1.25.
In the case of B5, the “mRNA display binding score” value is reported as inactive: 0.567.
With B6 the “mRNA display binding score” value was inactive: 0.371.

Same assay, conditions: antigen blocked with: nothing
For B1, the “mRNA display binding score” value was inactive: 0.0114.
With B2 the “mRNA display binding score” value was inactive: 3.09.
For B3, the “mRNA display binding score” value was inactive: 0.235.
B4 was tested, and the “mRNA display binding score” value was inactive: -0.0475.
In the case of B5, the “mRNA display binding score” value is reported as inactive: 0.583.
B6 was tested, and the “mRNA display binding score” value was inactive: -0.0849.

Each binder was assayed against Influenza B/Phuket/3073/2013 hemagglutinin ectodomain in the same assay as above. Conditions: antigen blocked with: 2 µM CR9114 IgG.
Protocol: as §1
B1 was tested, and the “mRNA display binding score” value was inactive: -0.112.
B2 was tested, and the “mRNA display binding score” value was inactive: 0.374.
B3 was tested, and the “mRNA display binding score” value was inactive: 0.566.
For B4, the “mRNA display binding score” value was inactive: 0.355.
With B5 the “mRNA display binding score” value was inactive: -0.159.
With B6 the “mRNA display binding score” value was inactive: -0.219.

Same assay, conditions: antigen blocked with: nothing
With B1 the “mRNA display binding score” value was inactive: -0.0872.
With B2 the “mRNA display binding score” value was inactive: 3.01.
With B3 the “mRNA display binding score” value was inactive: -0.00335.
B4 was tested, and the “mRNA display binding score” value was inactive: -0.137.
B5 was tested, and the “mRNA display binding score” value was inactive: 0.576.
B6 was tested, and the “mRNA display binding score” value was inactive: 0.468.
